From PubChem BioAssay AID1454 (National Center for Advancing Translational Sciences (NCATS), 2008)
The whole screen tested about 130,000 compounds, of which about 550 (0.42%) were called active. Inconclusive means that the source gave no clear call. Such entries were picked first, then a sample of the others. Calls follow the shape of the dose curve; as a rule, active = well fitted inhibition curve with a large enough effect; inconclusive = small, poorly fitted or top-dose-only effect, or effect the other way; inactive = flat fitted curve, though single readings scatter. Potencies of inconclusive entries are left out as doubtful fits.

Test: qHTS Assay for Inhibitors of the ERK Signaling Pathway using a Homogeneous Screening Assay; Stimulation with EGF; also: nearly all actives have a fitted effect of over 55% in size
Details: HEK293-V1b, EGF-stimulated phospho-ERK AlphaScreen
Method in brief: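 Phospho-ERK1/2 measured by AlphaScreen (SureFire) after 5 min 25 nM EGF stimulation of V1b-expressing HEK293 cells preincubated 30 min at 37C with titrated compounds; data scaled to DMSO and EGF controls, Hill-fitted AC50.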
Potency is read from the fitted curve at half-maximal effect; tags tell the direction and shape of the fitted curve.

Compound | Potency
C(=N\N(Cc1ccccc1)c1ccccc1)/c1ccco1 | inconclusive [inhibitor, single point]
CCOC(=O)COc1ccccc1/C=C\[N+](=O)[O-] | inconclusive [inhibitor, single point]
COc1ccc2nc(N=Nc3ccc(O)c4ccccc34)sc2c1 | active: 7.08 µM
Cc1c(NS(=O)(=O)c2cccs2)cccc1-c1nc2cccnc2s1 | inconclusive [inhibitor, single point]
O=C1/C(=C/c2cccs2)SC(=S)N1N1CCOCC1 | inconclusive [inhibitor, single point]
O=C1Nc2cc(C(=O)N3CCc4ccccc4C3)ccc2S/C1=C\c1ccccc1 | inactive
Cc1cc(=O)oc2c1c(C)nn2-c1cccc(Cl)c1 | inconclusive [inhibitor, single point]
O=C(O)c1ccc(CS(=O)c2cccc(C(F)(F)F)c2)o1 (configuration not stated) | inconclusive [inhibitor, single point]
C=CCc1ccc(OCCOc2cccc3cccnc23)c(OC)c1 | inconclusive [inhibitor, single point]
O=C(c1ccc(Cl)cc1)C1CCCN(Cc2cnn(-c3ccccc3)c2)C1 (configuration not stated) | active: 28.2 µM
Cc1ccc(C)c(N=Nc2ccc(O)c3ncccc23)c1 | inconclusive [inhibitor, full curve, poor fit]
CCOC(=O)C(C(=O)OCC)C(C)(C)/C(C)=N\Nc1ccc([N+](=O)[O-])cc1[N+](=O)[O-] | inconclusive [inhibitor, single point]
CCc1ccc2oc(C(=O)NCc3ccncc3)c(C)c2c1 | inactive
O=C(Nc1ccc(N2CCN(C(=O)c3ccc(Cl)cc3)CC2)cc1)c1ccc([N+](=O)[O-])o1 | inconclusive [inhibitor, partial curve, poor fit]
CCCc1nc2sc3ccccc3c(=O)c2c(=O)n1Cc1ccc(OC)cc1 | inconclusive [inhibitor, single point]
N#C/C(=C\Nc1ccccc1O)c1nc2ccccc2o1 | inconclusive [inhibitor, single point]
Cc1ccc(/C=N/N2CCN(C3c4ccccc4-c4ccccc43)CC2)s1 | inconclusive [inhibitor, full curve, poor fit]
C#CCN(C)CCCOc1ccc(Cl)cc1Cl | inconclusive [inhibitor, single point]
CC(C)(C)S(=O)(=O)/C(C#N)=N/Nc1ccc(Cl)cc1 | inconclusive [inhibitor, single point]
CC(C)(CO)Cc1cc(C(C)(C)C)c(O)c(C(C)(C)C)c1 | inconclusive [inhibitor, single point]
CCn1ccnc1CN1CCc2c([nH]c3ccccc23)C1C1CCCCC1 (configuration not stated) | inconclusive [inhibitor, partial curve]

Compound | Potency
Cc1ccc(NC(=O)C2=C(c3ccccc3)S(=O)(=O)CCS2(=O)=O)cc1 | inactive
O=C(Cn1[nH]c(=O)c2ccccc2c1=O)Nc1cccc(S(=O)(=O)N2CCCCCC2)c1 | inconclusive [inhibitor, single point]
CC(Nc1ncnc2nc[nH]c12)c1ccccc1 (configuration not stated) | inactive
COc1ccccc1/C=C/C=N/n1c(-c2ccco2)n[nH]c1=S | inconclusive [inhibitor, partial curve]
CC1CCC(=NNc2ccc(C(F)(F)F)cc2[N+](=O)[O-])CC1 (configuration not stated) | inconclusive [inhibitor, partial curve]
Oc1cc2c(c(Cl)c1O)CCNCC2c1ccccc1 (configuration not stated) | inconclusive [inhibitor, single point]
Cc1ccc(NC(=S)NCCSc2ccc(Cl)cc2)c(C)c1 | inactive
Cc1cc(C)c2nc(NNC(=O)c3ccc(S(=O)(=O)N4CCc5ccccc5C4)cc3)sc2c1 | inconclusive [inhibitor, single point]
CCCCC/C=C\C[C@H](O)/C=C/c1cccc(C[C@H](O)CCCCO)n1 | inconclusive [inhibitor, single point]
COc1ccc(Oc2ccc(/C=C/C(=O)c3ccc(O)cc3)cc2[N+](=O)[O-])cc1 | inconclusive [inhibitor, single point]
CC1CCN(CC(=O)Nc2ccc(Br)cc2[N+](=O)[O-])CC1 | inconclusive [inhibitor, partial curve]
CCCCC(CC)C(=O)Nc1ccc(Nc2ccccc2)cc1 (configuration not stated) | inconclusive [inhibitor, single point]
CCOC(=O)c1c(NC(=O)c2ccc(N3C(=O)[C@@H]4[C@H](C3=O)[C@H]3C=C[C@@H]4C3)cc2)sc2c1CCCC2 | inconclusive [activator, single point]
CC(=O)OC1CC[C@@]2(C)C3=CC(=O)[C@]4(C)C(CC5OC6(OCC(C)CC6Br)C(C)C54)C3CC[C@H]2C1 (some centres not stated) | inactive
NNC(=O)c1ccc(N2CCc3ccccc32)c([N+](=O)[O-])c1 | inconclusive [inhibitor, partial curve]
CCOC(=O)c1ccc(/C=C2/C=C(c3ccccc3)N(c3ccc(Cl)c(C(=O)O)c3)C2=O)cc1 | inactive
Cc1ccc(-n2ncc3c(SCc4cccc(C)c4)ncnc32)cc1 | inconclusive [activator, single point]
O=C1/C(=C\c2ccc(-c3ccccc3[N+](=O)[O-])o2)C(c2ccccc2)=NN1c1ccccc1 | active: 28.2 µM
O=C(O)c1ccc(NCc2ccc(Br)cc2)cc1 | inconclusive [inhibitor, single point]
COC(=O)Cn1c(C(=O)N2CCCC2)cc2c1C[C@H]1CN(C(=O)c3ccccc3)[C@@](Cc3ccccc3)(C(=O)OC)[C@@H]21 | inactive
Cc1cc(C(=O)COC(=O)CNS(=O)(=O)c2ccc3ccccc3c2)c(C)n1-c1ccccc1 | inactive
